# Measurements from PubChem BioAssay (NCATS).
# Values joined by “and” are separate entries in the source; they are usually repeats but may differ in a detail not shown here. Equal values may be shown once. The inconclusive results got no clear call from the source; some entries with a clear call stand among them for comparison. For some of these results: Potencies beside an inconclusive call are fits to weak or partial responses and may not hold up. Active and inactive are the calls of the source. Calls follow the shape of the dose curve; as a rule, active = well fitted curve in the direction sought with a large enough effect; inconclusive = small, poorly fitted or top-dose-only effect, or another doubt; inactive = no such curve, though single readings can be large; an effect the other way counts as inactive or inconclusive.
# Columns and labels:
# CRL-7250 = normal cell line; assay: Cytotoxic Profiling of Annotated Libraries Using Quantitative High-Throughput Screening (AID 1296008); conditions: Five cell lines viability, CellTiter-Glo ATP luminescence, 48-72 h; max response: stronger effect = lower value; also: nearly all actives have a fitted effect of over 60% in size; as to max response: % is scaled to controls: 0 for no effect and ±100 for the full control effect
# Outline: (§1)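 Cells exposed to compounds for 48 or 72 hr at 37 degrees Celsius. Viability read as ATP-coupled luminescence with CellTiter-Glo after 10 min at room temperature.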
# HEK293 = assay: as above; conditions: Five cell lines viability, CellTiter-Glo ATP luminescence, 48-72 h; max response: stronger effect = lower value
# Outline: as §1
# HaCat = assay: as above; conditions: Five cell lines viability, CellTiter-Glo ATP luminescence, 48-72 h; max response: stronger effect = lower value
# Outline: as §1
# KB-3-1 = assay: as above; conditions: Five cell lines viability, CellTiter-Glo ATP luminescence, 48-72 h; max response: stronger effect = lower value
# Outline: as §1
# MCC-13 = assay: qHTS assay to identify novel small-molecules to repurpose for Merkel cell carcinoma treatment (AID 1296009); conditions: MCC and control cell lines, CellTiter-Glo viability, 72 h; series mostly up to 46 µM; also: nearly all actives have a fitted effect of over 60% in size; as to activity change, negative = cytotoxicity: % is scaled to controls: 0 for no effect and ±100 for the full control effect
# Outline: (§2)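 Dose-response viability screen; 72 hr exposure at 37 degree celsius; CellTiter-Glo added, 10 min room temperature, luminescence read; RLUs scaled between no-cell and DMSO wells.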
# MCC-26 = assay: as above; conditions: MCC and control cell lines, CellTiter-Glo viability, 72 h; series mostly up to 46 µM
# Outline: as §2
# MKL-2 = assay: as above; conditions: MCC and control cell lines, CellTiter-Glo viability, 72 h; series mostly up to 46 µM
# Outline: as §2
# Es-2 = assay: Primary qHTS to identify gynecologic anti-cancer compounds using libraries of approved drugs and bioactive compounds (AID 1345084); conditions: Gynecologic cancer cell panel viability, ATPlite luminescence, 48 h; series mostly up to 57.5 µM; also: nearly all actives have a fitted effect of over 55% in size
# Outline: (§3)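 Measured: luminescence after ATPlite addition (15 min, RT). Exposure: 48 h, 37 C, 5% CO2.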
# W2 = assay: qHTS profiling for inhibitors of Plasmodium falciparum proliferation (AID 504749); also: nearly all actives have a fitted effect of over 60% in size; conditions: P. falciparum in erythrocytes, SYBR Green DNA, 72 h; series mostly up to 28.7 µM
# Outline: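 Each compound contacts P. falciparum-infected red blood cells for 72 h at 37 C; lysis buffer (Tris, EDTA, saponin, Triton X, SYBR Green I) is added and fluorescence measured next morning; values normalized to controls.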
# WaGa = assay: qHTS assay to identify novel small-molecules to repurpose for Merkel cell carcinoma treatment (AID 1296009); conditions: MCC and control cell lines, CellTiter-Glo viability, 72 h; series mostly up to 46 µM; also: nearly all actives have a fitted effect of over 60% in size; as to activity change, negative = cytotoxicity: % is scaled to controls: 0 for no effect and ±100 for the full control effect
# Outline: as §2
# C33A = assay: Primary qHTS to identify gynecologic anti-cancer compounds using libraries of approved drugs and bioactive compounds (AID 1345084); conditions: Gynecologic cancer cell panel viability, ATPlite luminescence, 48 h; series mostly up to 57.5 µM; also: nearly all actives have a fitted effect of over 55% in size
# Outline: as §3
# CAOV3 = assay: as above; conditions: Gynecologic cancer cell panel viability, ATPlite luminescence, 48 h; series mostly up to 57.5 µM
# Outline: as §3
# CASKI = assay: as above; conditions: Gynecologic cancer cell panel viability, ATPlite luminescence, 48 h; activity change, negative = cytotoxicity: at 57.5 µM (top of the series)
# Outline: as §3
# HeLa = assay: as above; conditions: Gynecologic cancer cell panel viability, ATPlite luminescence, 48 h; series mostly up to 57.5 µM
# Outline: as §3
# NIH3T3 = assay: Cytotoxic Profiling of Annotated Libraries Using Quantitative High-Throughput Screening (AID 1296008); conditions: Five cell lines viability, CellTiter-Glo ATP luminescence, 48-72 h; max response: stronger effect = lower value; also: nearly all actives have a fitted effect of over 60% in size; as to max response: % is scaled to controls: 0 for no effect and ±100 for the full control effect
# Outline: as §1
# UISO = assay: qHTS assay to identify novel small-molecules to repurpose for Merkel cell carcinoma treatment (AID 1296009); conditions: MCC and control cell lines, CellTiter-Glo viability, 72 h; series mostly up to 46 µM; also: nearly all actives have a fitted effect of over 60% in size
# Outline: as §2
# astro = assay: Drug repurposing screens with cells derived from glioblastoma tumor samples (AID 1345199); conditions: viability, ATP luminescence, 48 h; activity, negative = cell killing: at 45.9 µM (top of the series); also: nearly all actives have a fitted effect of over 40% in size
# Outline: (§4)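 Primary testing used CD133+ neurospheres from four GBM patients, seven concentrations, 48 h exposure and ATP-based viability; confirmation added three slower-growing patient lines.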
# [1] = as above; conditions: GBM patient neurospheres viability, ATP luminescence, 48 h; Potency: tumour line A unless noted; activity, negative = cell killing: at 46 µM (top of the series), tumour line A unless noted
# Outline: as §4
# MKL-1 = assay: qHTS assay to identify novel small-molecules to repurpose for Merkel cell carcinoma treatment (AID 1296009); conditions: MCC and control cell lines, CellTiter-Glo viability, 72 h; series mostly up to 46 µM; also: nearly all actives have a fitted effect of over 60% in size
# Outline: as §2
# Potency is read from the fitted curve at half-maximal effect; tags tell the direction and shape of the fitted curve.
compound,measurement,setting,value
COc1cccc(OC)c1-c1cc(C(=O)NC2(C(=O)O)C3CC4CC(C3)CC2C4)nn1-c1ccnc2cc(Cl)ccc12 (stereo not given),max response,CRL-7250,inactive: -4.21%
CC(C)n1cnc2c(NCCc3ccc(O)cc3)nc(-c3csc4ccccc34)nc21,Potency,CRL-7250,"inconclusive: 37.2 µM [inhibitor, single point]"
same,Potency,HEK293,"inconclusive: 29.6 µM [inhibitor, single point]"
same,Potency,HaCat,"inconclusive: 29.1 µM [inhibitor, single point]"
same,Potency,KB-3-1,"inconclusive: 33.2 µM [inhibitor, single point] and inconclusive: 20.6 µM [inhibitor, single point]"
same,Potency,MCC-13,inactive
same,Potency,MCC-26,"inconclusive: 26.4 µM [inhibitor, single point]"
same,Potency,MKL-2,"inconclusive: 18.7 µM [inhibitor, partial curve]"
same,Potency,Es-2,inactive
Nc1c2ccccc2nc2ccccc12,Potency,W2,active: 8.49 µM
same,Potency,CRL-7250,active: 8.41 µM
same,Potency,HEK293,active: 5.96 µM
same,Potency,HaCat,"inconclusive: 9.44 µM [inhibitor, partial curve, poor fit]"
same,Potency,KB-3-1,"inconclusive: 29.1 µM [inhibitor, single point]"
same,Potency,MCC-13,active: 18.8 µM
same,Potency,MCC-26,"inconclusive: 33.5 µM [inhibitor, single point]"
same,Potency,MKL-2,"inconclusive: 4.22 µM [inhibitor, full curve]"
same,Potency,WaGa,"inconclusive: 6.68 µM [inhibitor, single point]"
same,Potency,C33A,"inconclusive: 28.2 µM [cytotoxic, partial curve, poor fit]"
same,Potency,CAOV3,"inconclusive: 15.8 µM [cytotoxic, partial curve, poor fit]"
same,Potency,CASKI,"inconclusive: 31.6 µM [cytotoxic, single point]"
same,Potency,Es-2,active: 14.1 µM
same,Potency,HeLa,"inconclusive: 28.2 µM [cytotoxic, single point]"
COc1ccccc1OCC(O)COC(N)=O (stereo not given),max response,CRL-7250,inactive: -1.17%
same,outcome,CRL-7250,inactive
C#Cc1cccc(Nc2ncnc3cc(OCCOC)c(OCCOC)cc23)c1,Potency,CRL-7250,"active: 18.7 µM and active: 8.41 µM and inconclusive: 18.4 µM [inhibitor, partial curve, poor fit]"
same,Potency,HEK293,"inconclusive: 29.9 µM [inhibitor, single point] and inconclusive: 29.1 µM [inhibitor, single point]"
same,Potency,HaCat,active: 5.9 µM and active: 944 nM and active: 651 nM
same,Potency,NIH3T3,"inconclusive: 37.2 µM [inhibitor, single point] and inconclusive: 33.5 µM [inhibitor, single point] and inconclusive: 13 µM [inhibitor, partial curve, poor fit]"
same,Potency,MCC-13,"inconclusive: 23.7 µM [inhibitor, single point]"
same,Potency,MKL-2,"inconclusive: 8.41 µM [inhibitor, partial curve, poor fit]"
same,Potency,UISO,"inconclusive: 14.8 µM [inhibitor, partial curve] and inconclusive: 9.44 µM [inhibitor, partial curve]"
same,Potency,WaGa,"active: 29.6 µM and inconclusive: 18.8 µM [inhibitor, partial curve, poor fit]"
same,Potency,astro,"inconclusive: 8.91 µM [inhibitor, partial curve]"
same,Potency,CAOV3,"inconclusive: 31.6 µM [cytotoxic, single point] and inconclusive: 28.2 µM [cytotoxic, single point]"
same,Potency,Es-2,"inconclusive: 28.2 µM [cytotoxic, single point]"
CN(C)CCCOc1nn(Cc2ccccc2)c2ccccc12,Potency,CRL-7250,"inconclusive: 18.8 µM [inhibitor, partial curve]"
same,Potency,HEK293,"inconclusive: 37.6 µM [inhibitor, partial curve, poor fit] and inconclusive: 25.9 µM [inhibitor, single point]"
same,Potency,HaCat,"inconclusive: 33.5 µM [inhibitor, single point]"
same,Potency,NIH3T3,"inconclusive: 29.9 µM [inhibitor, single point] and inconclusive: 29.1 µM [inhibitor, single point]"
same,Potency,MKL-2,"inconclusive: 10.6 µM [inhibitor, partial curve, poor fit]"
same,Potency,UISO,"inconclusive: 26.6 µM [inhibitor, partial curve]"
same,Potency,[1],active: 1.58 µM
same,Potency,C33A,"inconclusive: 39.8 µM [cytotoxic, single point]"
same,Potency,CAOV3,"inconclusive: 39.8 µM [cytotoxic, single point]"
same,Potency,CASKI,"inconclusive: 28.2 µM [cytotoxic, single point]"
same,Potency,Es-2,"inconclusive: 39.8 µM [cytotoxic, single point] and inactive"
same,Potency,HeLa,"inconclusive: 39.8 µM [cytotoxic, single point]"
COc1cccc(CCc2ccccc2OCC(CN(C)C)OC(=O)CCC(=O)O)c1 (stereo not given),max response,CRL-7250,inactive: 3.68%
same,Potency,HEK293,"inconclusive: 33.5 µM [inhibitor, single point]"
same,Potency,HaCat,"inconclusive: 18.8 µM [inhibitor, partial curve]"
same,max response,NIH3T3,inactive: -1.97%
same,Potency,MKL-1,inactive
same,Potency,WaGa,"inconclusive: 29.9 µM [inhibitor, single point]"
same,Potency,astro,"inconclusive: 22.4 µM [inhibitor, single point]"
